In patent US6172185A, “Antimicrobial cationic peptide derivatives of bactenecin” (priority 1998, dated 2001):
Values after ≈ are worked out from the molar mass of the structure shown. Part of at least one peptide drawing is inferred or uncertain, most often the ends. Where a SMILES comes first, the peptide text is derived from it. Where no end group is shown, it is not given here.

Assays:
E.coli UB1005 = assay: MIC, modified two-fold microtitre broth dilution; format: cell-based, Escherichia coli
Description: (§1) Bacterial strains for antimicrobial activity testing included Escherichia coli UB1005 and its antibiotic supersusceptible derivative DC2 (Richmond et al., Antimicrob. Agents Chemother. 10:215, 1976), Pseudomonas aeruginosa K799 and its antibiotic-supersusceptible derivative Z61 (Angus et al., Antimicrob. Agents Chemother. 21:299, 1982), Salmonella typhimurium 14028s and its defensin-supersusceptible derivative MS7953s (Fields et al., Science, 243:1059, 1989), Staphylococcus aureus ATCC25923 and a clinical isolate Staphylococcus aureus SAP1007. Other Gram-positive bacterial strains include Staphylococcus epidermidis (clinical isolate) and Enterococcus faecalis ATCC29212, Listeria monocytogenes, Corynebacterium xerosis, Streptococcus pneumoniae ATTC49619, Streptococcus pyogenes ATTC19615, Streptococcus mitis.
(§2) The minimal inhibitory concentration (MIC) of peptides was determined by a modified two-fold microtitre broth dilution method modified from that of Steinberg et al (Steinberg, Antimicrob. Agents Chemother. 41:1738, 1997). Using the classical method (Amsterdam, Antibiotics in Laboratory Medicine (Lorian, V., ed) pp. 72-78, 1991), higher concentrations of peptides tend to precipitate in the LB broth, thus the concentrations of peptides in the sequential wells are not accurate. Also the peptides stick to the most readily available (tissue-culture treated polystyrene) 96-well microtitre plates. Therefore the 2× series of dilutions was performed in Eppendoff tubes (polypropylene) before mixing with LB broth. Serial of two fold dilutions of peptides ranging from 640 μg/ml to 1.25 μg/ml were made in 0.2% BSA, 0.01% acetic acid buffer in the Eppendoff tubes. Ten μl of each concentration was added to each corresponding well of a 96-well microtiter plate (polypropylene cluster; Costar Corporation, Cambridge, Mass.). Bacteria were grown overnight and diluted 10-5 into fresh LB broth or Todd Hewitt broth for Streptococcus. LB medium contained 10 g/1l tryptone and 5 g/yeast extract, with no salt. Todd Hewitt contained 500 g/l beef heart infusion, 20 g/l bacto neopeptone, 2 g/l bacto dextrose, 2 g/l sodium chloride, 0.4 g/l disodium phosphate, 2.5 g/l sodium carbonate. One hundred […] containing about 10^4-10^5 CFU/ml of tested bacteria was added to each well. The plate was incubated at 37° C. overnight. The MIC was taken as the concentration at which greater than 90% of growth inhibition was observed.

E.facaelis = assay: MIC, modified two-fold microtitre broth dilution; format: cell-based, Enterococcus faecalis
Description: as §1, §2

E. coli DC2 = assay: Cytoplasmic membrane potential dissipation, DiS-C3-(5) assay; format: cell-based, Escherichia coli
E. coli UB1005 LPS = assay: Dansyl-polymyxin B displacement assay (LPS binding); set-up: species or system Escherichia coli; conditions: FIG. 2
[1] = Table IIA, linear (Group 1) derivatives
[2] = Table IIB, linear derivatives (Group 1)
[3] = Table IIC, linear (Group 2): reduced forms of the peptides, Bac (Oxidized) as comparator
[4] = Table IID, linear (Group 2): reduced forms of the peptides, Bac (Oxidized) as comparator
[5] = table IIA, non-linear positive-charge modification derivatives
[6] = Table IIIB, non-linear positive-charge modification derivatives

With “RLARIVVIRVAR-NH2 [Bac 2A-NH2, RLARIVVIRVAR-NH2]” the “MIC E.coli UB1005” value (E.coli UB1005; [1]) was 4 µg/mL and the “MIC E.facaelis” value (E.facaelis; [2]) was 2 µg/mL.

For “RLSRIVVIRVSR-NH2 [Bac 2S-NH2, RLSRIVVIRVSR-NH2]”, the “MIC E.coli UB1005” value (E.coli UB1005; [1]) was 2 µg/mL and the “MIC E.facaelis” value (E.facaelis; [2]) was 4 µg/mL.

In the case of CC[C@H](C)[C@H](NC(=O)[C@H](CCCNC(=N)N)NC(=O)[C@H](CS)NC(=O)[C@H](CC(C)C)NC(=O)[C@@H](N)CCCNC(=N)N)C(=O)N[C@H](C(=O)N[C@H](C(=O)N[C@H](C(=O)N[C@@H](CCCNC(=N)N)C(=O)N[C@H](C(=O)N[C@@H](CS)C(=O)N[C@@H](CCCNC(=N)N)C(=O)O)C(C)C)[C@@H](C)CC)C(C)C)C(C)C [Bac (Reduced), RLCRIVVIRVCR] (H-RLCRIVVIRVCR-OH), the “MIC E.coli UB1005” value (E.coli UB1005; [1]) is reported as 64 µg/mL (≈ 43.1 µM), the “MIC E.coli UB1005” value (E.coli UB1005; [3]) is reported as 64 µg/mL (≈ 43.1 µM) and the “MIC E.facaelis” value (E.facaelis; [2]) is reported as 8 µg/mL (≈ 5.38 µM). The “MIC E.facaelis” value (E.facaelis; [4]) was 8 µg/mL (≈ 5.38 µM).

For CC[C@H](C)[C@@H]1NC(=O)[C@H](C(C)C)NC(=O)[C@H](C(C)C)NC(=O)[C@H]([C@@H](C)CC)NC(=O)[C@@H]2CCCN2C(=O)[C@@H](NC(=O)[C@H](CCCNC(=N)N)NC(=O)[C@@H](N)CCCNC(=N)N)CSSC[C@@H](C(=O)N[C@@H](CCCNC(=N)N)C(=O)O)NC(=O)[C@H](C(C)C)NC(=O)[C@H](CCCNC(=N)N)NC1=O [Bac R, P, RRCPIVVIRVCR] (HELM PEPTIDE1{R.R.C.P.I.V.V.I.R.V.C.R}$PEPTIDE1,PEPTIDE1,3:R3-11:R3$$$V2.0), the “MIC E.coli UB1005” value (E.coli UB1005; [5]) was 4 µg/mL (≈ 2.73 µM) and the “MIC E.facaelis” value (E.facaelis; [6]) was greater than 32 µg/mL.

In the case of RLSRIVVIRVSR [Bac 2S, RLSRIVVIRVSR], the “MIC E.coli UB1005” value (E.coli UB1005; [1]) is reported as 16 (32) μg/ml and the “MIC E.facaelis” value (E.facaelis; [2]) is reported as 8 µg/mL.

In the case of “RLSRIVVIRVCR-NH2 [Bac S-NH2, RLSRIVVIRVCR-NH2]”, the “MIC E.coli UB1005” value (E.coli UB1005; [1]) is reported as 4 µg/mL and the “MIC E.facaelis” value (E.facaelis; [2]) is reported as 16 µg/mL.

With CC[C@H](C)[C@@H]1NC(=O)[C@H](CCCNC(=N)N)NC(=O)[C@@H](NC(=O)[C@H](CC(C)C)NC(=O)[C@@H](N)CCCNC(=N)N)CSSC[C@@H](C(=O)N[C@@H](CCCNC(=N)N)C(=O)O)NC(=O)[C@H](C(C)C)NC(=O)[C@H](CCCNC(=N)N)NC(=O)[C@H]([C@@H](C)CC)NC(=O)[C@H](C(C)C)NC(=O)[C@H](C(C)C)NC1=O [Bactenecin, RLCRIVVIRVCR] (HELM PEPTIDE1{R.L.C.R.I.V.V.I.R.V.C.R}$PEPTIDE1,PEPTIDE1,3:R3-11:R3$$$V2.0) the “MIC E.coli UB1005” value (E.coli UB1005; [1]) was 8 µg/mL (≈ 5.39 µM), the “MIC E.coli UB1005” value (E.coli UB1005; [3]) was 8 µg/mL (≈ 5.39 µM) and the “MIC E.coli UB1005” value (E.coli UB1005; Table IVA, non-linear hydrophobicity modification derivatives) was 8 µg/mL (≈ 5.39 µM). For the same molecule, the “MIC E.coli UB1005” value (E.coli UB1005; [5]) was 8 µg/mL (≈ 5.39 µM), the “MIC E.facaelis” value (E.facaelis; [2]) was greater than 64 µg/mL and the “MIC E.facaelis” value (E.facaelis; [4]) was greater than 64 µg/mL. The “MIC E.facaelis” value (E.facaelis; [6]) was greater than 64 µg/mL, the “concentration of maximal effect on membrane potential” value (E. coli DC2) was 4 fold the MIC and the “LPS binding (dansyl polymyxin B displacement)” value (E. coli UB1005 LPS) was “relatively weak LPS-binder compared to polymyxin B”.
